Measured values as given in the supplement of paper PMC8728848.
The list shows a part of the results.

Key:
Assay in all cases: glycan array binding signal (z-score within array); higher = stronger binding
Details in all cases: glycan notation: IUPAC condensed, linker removed
[1] = target: Gal(b1-4)GlcNAc(b1-3)Gal(b1-4)GlcNAc(b1-3)Gal(b1-4)GlcNAc(b1-3)Gal(b1-4)GlcNAc(b1-2)Man(a1-3)[Gal(b1-4)GlcNAc(b1-3)Gal(b1-4)GlcNAc(b1-3)Gal(b1-4)GlcNAc(b1-3)Gal(b1-4)GlcNAc(b1-2)Man(a1-6)]Man(b1-4)GlcNAc(b1-4)GlcNAc
Procedure, shortened: (§1)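 Columns mapping to the same glycan were averaged after glycan names were converted to IUPAC-condensed notation. The data come from 3228 arrays in the Consortium for Functional Glycomics database, limited to those with an available protein sequence. Binding is reported as a within-array Z-score averaged across arrays of one protein sequence and across linkers.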

[2] = target: Gal(b1-4)GlcNAc(b1-3)Gal(b1-4)GlcNAc(b1-3)Gal(b1-4)GlcNAc(b1-3)Gal(b1-4)GlcNAc(b1-2)Man(a1-3)[Gal(b1-4)GlcNAc(b1-3)Gal(b1-4)GlcNAc(b1-3)Gal(b1-4)GlcNAc(b1-3)Gal(b1-4)GlcNAc(b1-2)Man(a1-6)]Man(b1-4)GlcNAc(b1-4)[Fuc(a1-6)]GlcNAc
Procedure, shortened: as §1

[3] = target: Gal(b1-4)GlcNAc(b1-3)Gal(b1-4)GlcNAc(b1-3)Gal(b1-4)GlcNAc(b1-3)Gal(b1-4)GlcNAc(b1-2)[Gal(b1-4)GlcNAc(b1-3)Gal(b1-4)GlcNAc(b1-3)Gal(b1-4)GlcNAc(b1-3)Gal(b1-4)GlcNAc(b1-6)]Man(a1-6)[Gal(b1-4)GlcNAc(b1-3)Gal(b1-4)GlcNAc(b1-3)Gal(b1-4)GlcNAc(b1-3)Gal(b1-4)GlcNAc(b1-2)Man(a1-3)]Man(b1-4)GlcNAc(b1-4)[Fuc(a1-6)]GlcNAc
Procedure, shortened: as §1

[4] = target: Gal(b1-4)GlcNAc(b1-3)Gal(b1-4)GlcNAc(b1-3)Gal(b1-4)GlcNAc(b1-3)Gal(b1-4)GlcNAc(b1-3)Gal(b1-4)GlcNAc(b1-2)Man(a1-3)[Gal(b1-4)GlcNAc(b1-3)Gal(b1-4)GlcNAc(b1-3)Gal(b1-4)GlcNAc(b1-3)Gal(b1-4)GlcNAc(b1-3)Gal(b1-4)GlcNAc(b1-2)Man(a1-6)]Man(b1-4)GlcNAc(b1-4)GlcNAc
Procedure, shortened: as §1

[5] = target: Gal(b1-4)GlcNAc(b1-3)Gal(b1-4)GlcNAc(b1-3)Gal(b1-4)GlcNAc(b1-3)Gal(b1-4)GlcNAc(b1-3)Gal(b1-4)GlcNAc(b1-2)Man(a1-3)[Gal(b1-4)GlcNAc(b1-3)Gal(b1-4)GlcNAc(b1-3)Gal(b1-4)GlcNAc(b1-3)Gal(b1-4)GlcNAc(b1-3)Gal(b1-4)GlcNAc(b1-2)Man(a1-6)]Man(b1-4)GlcNAc(b1-4)[Fuc(a1-6)]GlcNAc
Procedure, shortened: as §1

[6] = target: Gal(b1-4)GlcNAc(b1-3)Gal(b1-4)GlcNAc(b1-3)Gal(b1-4)GlcNAc(b1-3)Gal(b1-4)GlcNAc(b1-3)Gal(b1-4)GlcNAc(b1-2)[Gal(b1-4)GlcNAc(b1-3)Gal(b1-4)GlcNAc(b1-3)Gal(b1-4)GlcNAc(b1-3)Gal(b1-4)GlcNAc(b1-3)Gal(b1-4)GlcNAc(b1-6)]Man(a1-6)[Gal(b1-4)GlcNAc(b1-3)Gal(b1-4)GlcNAc(b1-3)Gal(b1-4)GlcNAc(b1-3)Gal(b1-4)GlcNAc(b1-3)Gal(b1-4)GlcNAc(b1-2)Man(a1-3)]Man(b1-4)GlcNAc(b1-4)[Fuc(a1-6)]GlcNAc
Procedure, shortened: as §1

[7] = target: Gal(b1-4)GlcNAc(b1-3)Gal(b1-4)GlcNAc(b1-3)Gal(b1-4)GlcNAc(b1-3)Gal(b1-4)GlcNAc(b1-3)Gal(b1-4)GlcNAc(b1-3)Gal(b1-4)GlcNAc(b1-2)Man(a1-3)[Gal(b1-4)GlcNAc(b1-3)Gal(b1-4)GlcNAc(b1-3)Gal(b1-4)GlcNAc(b1-3)Gal(b1-4)GlcNAc(b1-3)Gal(b1-4)GlcNAc(b1-3)Gal(b1-4)GlcNAc(b1-2)Man(a1-6)]Man(b1-4)GlcNAc(b1-4)GlcNAc
Procedure, shortened: as §1

[8] = target: Gal(b1-4)GlcNAc(b1-3)Gal(b1-4)GlcNAc(b1-3)GalNAc
Procedure, shortened: as §1

[9] = target: Gal(b1-4)GlcNAc(b1-3)Gal(b1-4)GlcNAc(b1-3)[Gal(b1-4)GlcNAc(b1-3)Gal(b1-4)GlcNAc(b1-6)]GalNAc
Procedure, shortened: as §1

[10] = target: Gal(b1-4)GlcNAc(b1-3)Gal(b1-4)GlcNAc(b1-6)[Gal(b1-3)]GalNAc
Procedure, shortened: as §1

[11] = target: Gal(b1-4)GlcNAc(b1-3)Gal(b1-4)[Fuc(a1-3)]GlcNAc(b1-3)Gal(b1-4)[Fuc(a1-3)]GlcNAc
Procedure, shortened: as §1

[12] = target: Gal(b1-4)GlcNAc(b1-3)GalNAc
Procedure, shortened: as §1

[13] = target: Gal(b1-4)GlcNAc(b1-3)[Fuc(a1-3)GlcNAc(b1-6)]Gal(b1-4)Glc
Procedure, shortened: as §1

[14] = target: Gal(b1-4)GlcNAc(b1-3)[Gal(b1-4)GlcNAc(b1-6)]Gal(b1-4)GlcNAc
Procedure, shortened: as §1

[15] = target: Gal(b1-4)GlcNAc(b1-3)[GlcNAc(b1-6)]Gal(b1-4)GlcNAc
Procedure, shortened: as §1

[16] = target: Gal(b1-4)GlcNAc(b1-6)Gal(b1-4)GlcNAc
Procedure, shortened: as §1

[17] = target: Gal(b1-4)GlcNAc(b1-6)GalNAc
Procedure, shortened: as §1

[18] = target: Gal(b1-4)GlcNAc(b1-6)[Gal(b1-3)]GalNAc
Procedure, shortened: as §1

[19] = target: Gal(b1-4)GlcNAc(b1-6)[Gal(b1-4)GlcNAc(b1-3)]GalNAc
Procedure, shortened: as §1

[20] = target: Gal(b1-4)GlcNAc6P
Procedure, shortened: as §1

[21] = target: Gal(b1-6)Gal
Procedure, shortened: as §1

[22] = target: Gal3S(b1-3)GalNAc
Procedure, shortened: as §1

[23] = target: Gal3S(b1-3)GlcNAc
Procedure, shortened: as §1

[24] = target: Gal3S(b1-3)[Fuc(a1-4)]GlcNAc
Procedure, shortened: as §1

[25] = target: Gal3S(b1-4)Glc
Procedure, shortened: as §1

[26] = target: Gal3S(b1-4)Glc6S
Procedure, shortened: as §1

[27] = target: Gal3S(b1-4)GlcNAc
Procedure, shortened: as §1

[28] = target: Gal3S(b1-4)[Fuc(a1-3)]Glc6S
Procedure, shortened: as §1

[29] = target: Gal3S(b1-4)[Fuc(a1-3)]GlcNAc
Procedure, shortened: as §1

[30] = target: Gal3S(b1-4)[Fuc(a1-3)]GlcNAc6S
Procedure, shortened: as §1

[31] = target: Gal3S4S(b1-4)GlcNAc
Procedure, shortened: as §1

[32] = target: Gal3S6S(b1-4)GlcNAc
Procedure, shortened: as §1

[33] = target: Gal3S6S(b1-4)GlcNAc6S
Procedure, shortened: as §1

[34] = target: Gal4S(b1-4)GlcNAc
Procedure, shortened: as §1

[35] = target: Gal4S6S(b1-4)GlcNAc
Procedure, shortened: as §1

[36] = target: Gal6P(b1-4)GlcNAc
Procedure, shortened: as §1

[37] = target: Gal6S(b1-3)GlcNAc
Procedure, shortened: as §1

[38] = target: Gal6S(b1-3)GlcNAc6S
Procedure, shortened: as §1

B1: Apa (Mycobacterium tuberculosis), Rv1860 (protein)
chain: MHQVDPNLTRRKGRLAALAIAAMASASLVTVAVPATANADPEPAPPVPTTAASPPSTAAAPPAPATPVAPPPPAAANTPNAQPGDPNAAPPPADPNAPPPPVIAPNAPQPVRIDNPVGGFSFALPAGWVESDAAHFDYGSALLSKTTGDPPFPGQPPPVANDTRIVLGRLDQKLYASAEATDSKAAARLGSDMGEFYMPYPGTRINQETVSLDANGVSGSASYYEVKFSDPSKPNGQIWTGVIGSPAANAPDAGPPQRWFVVWLGTANNPVDKGAAKALAESIRPLVAPPPAPAPAPAEPAPAPAPAGEVAPTPTTPTPQRTLPA
[1]
  glycan array binding signal (z-score): -0.436
[2]
  glycan array binding signal (z-score): 0.133
[3]
  glycan array binding signal (z-score): -0.157
[4]
  glycan array binding signal (z-score): -0.179
[5]
  glycan array binding signal (z-score): -0.184
[6]
  glycan array binding signal (z-score): -0.271
[7]
  glycan array binding signal (z-score): -0.256
[8]
  glycan array binding signal (z-score): 0.324
[9]
  glycan array binding signal (z-score): 0.481
[10]
  glycan array binding signal (z-score): -0.031
[11]
  glycan array binding signal (z-score): -0.425
[12]
  glycan array binding signal (z-score): -0.132
[13]
  glycan array binding signal (z-score): -0.139
[14]
  glycan array binding signal (z-score): -0.022
[15]
  glycan array binding signal (z-score): -0.402
[16]
  glycan array binding signal (z-score): -0.201
[17]
  glycan array binding signal (z-score): -0.355
[18]
  glycan array binding signal (z-score): -0.472
[19]
  glycan array binding signal (z-score): -0.158
[20]
  glycan array binding signal (z-score): -0.455
[21]
  glycan array binding signal (z-score): 0.532
[22]
  glycan array binding signal (z-score): 0.357
[23]
  glycan array binding signal (z-score): 0.151
[24]
  glycan array binding signal (z-score): -0.012
[25]
  glycan array binding signal (z-score): -0.068
[26]
  glycan array binding signal (z-score): 0.25
[27]
  glycan array binding signal (z-score): -0.061
[28]
  glycan array binding signal (z-score): 0.519
[29]
  glycan array binding signal (z-score): -0.205
[30]
  glycan array binding signal (z-score): 0.275
[31]
  glycan array binding signal (z-score): 0.179
[32]
  glycan array binding signal (z-score): 0.641
[33]
  glycan array binding signal (z-score): 0.639
[34]
  glycan array binding signal (z-score): -0.369
[35]
  glycan array binding signal (z-score): -0.135
[36]
  glycan array binding signal (z-score): -0.315
[37]
  glycan array binding signal (z-score): -0.335
[38]
  glycan array binding signal (z-score): 0.42
